Results published in PMC12136788.
Some of the results follow.

T1: UNK ZnF1-3 (human, UniProt Q9C0B0 31-174)
T1 sequence: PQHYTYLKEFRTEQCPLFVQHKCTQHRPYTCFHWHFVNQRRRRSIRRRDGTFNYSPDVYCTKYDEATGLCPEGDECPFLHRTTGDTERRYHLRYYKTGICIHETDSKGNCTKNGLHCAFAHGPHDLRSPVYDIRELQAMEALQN

B1: chrX:71549762:71549763:+_ENSMUSG00000019087_ENSMUST00000019231|mus_mus|mus_mus_mus_hu_False|8_98 (ssRNA)
RNA: GGGAGUUCUACAGUCCGACGAUCAAACCCGUGUACUCACUCUUAACAGCACAACAUCACCAGAAAACGAUAACGACAGCCAAGCAGGACAGACAGUUAAGUAGUACUUCCACACUCCCAAACUCAGAGGAACCUCAAACCUUACAACAGAGGAUUGAGCAUCA
B2: chr1:201104638:201104639:-_ENSG00000116857_ENST00000367334|hu_hu|motif|central (ssRNA)
RNA: GGGAGUUCUACAGUCCGACGAUCAGAGAUCAGAGACCACAUCCCUCUUCCCUAAUCAAAAUAGCCAAGUACAACAUUUCGGAAGUUAGGGAGAAGGAGGAAAAAUGCCACAGGCUUUUAAAGGGAAGACUGGAACCGAGGGAACAACAGAGGAUUGAGCAUCA
B3: chr12:28025581:28025582:-_ENSMUSG00000063632_ENSMUST00000079063|mus_mus|motif|central (ssRNA)
RNA: GGGAGUUCUACAGUCCGACGAUCUUUUUAAAUCUCUUAAGAAAAAAAAAUCAACUCCCUAGAGUAACAGUUGUGCCGUCGGAAGGGUCCUCUGCCGAUGUCUUUCAGACUUCAAAGAGCCACAAGCUUCAAACAGCGCCUUCCCAACAGAGGAUUGAGCAUCA
B4: chr7:141438946:141438947:+_ENSG00000106028_ENST00000265304|hu_mus|hu_hu_hu_mus_True|1_18 (ssRNA)
RNA: GGGAGUUCUACAGUCCGACGAUCGACGAAAUACCUGUAACACAGGUCUUCGAAACAUGGCUUCUGUUUUUCUUACAACCUAAUCUUUAGGCUUUUCCUAAAGGAAAGAAAGAAAAGGCCCAGCCACUAAAUCAAGAACUUCCGCAACAGAGGAUUGAGCAUCA
B5: 21830776_21831005_918_3pUTR_ENSMUSG00000003410_ENSMUST00000003501|mouse|control|control (ssRNA)
RNA: GGGAGUUCUACAGUCCGACGAUCCCUUGAUGGCCUCCUCUGCCUCGAUCCUCUUGUCAAAGCGGAUGAAUCCCACACCCCGAGAGACACCUGUGGCCUGGUCCAGCAGGAUUCUGGAAGUGAUGAUUCGGCCGUACUGGGAGACAACAGAGGAUUGAGCAUCA
B6: chr17:65740002:65740003:+_ENSG00000130935_ENST00000581375|hu_hu|hu_hu_hu_mus_False|48_78 (ssRNA)
RNA: GGGAGUUCUACAGUCCGACGAUCAACAAAUCUUUCUUCCCUGGACGAACAGGAAGACAUAAAAGAGAAAAAAUAUAUAUCCAUCAAGGAGAAUUGAGUGGCCACACCUUUACUCCCAGCACUUUGGGAGGUGGAUCUCUGAGUCAACAGAGGAUUGAGCAUCA
B7: chr9:33280828:33280829:+_ENSG00000086065_ENST00000223500|hu_mus|FALSE|FALSE (ssRNA)
RNA: GGGAGUUCUACAGUCCGACGAUCAGUCCCAGAAUACUUCUCUUGUUGUUUCACAUCACGUGCUGGAAUGUUGUAAGUCUACGAAGCGGGAAUCUGCGGCAGUCCAAAUUCAUCCACCAGCACGCCAUCCUUGUUUUUUGUGUCCAACAGAGGAUUGAGCAUCA
B8: chr12:100720429:100720430:+_ENSG00000136021_ENST00000360820|hu_hu|FALSE|FALSE (ssRNA)
RNA: GGGAGUUCUACAGUCCGACGAUCGAAGGGUAGGAUAUCAUCAAGUACAAACCACUUAUCCAAGUAUUCCAAAAUCUUUCCUAAGCACACUAAUGAAUUUACACGAACCGCAAGGGAAGAUGUUUGUAGACAAGCAUUUUUAAUCAACAGAGGAUUGAGCAUCA
B9: 27456574_27456893_3519_CDS_ENSG00000084774_ENST00000264705|human|control|control (ssRNA)
RNA: GGGAGUUCUACAGUCCGACGAUCGGCAUCCACGUCAAUCUCCUUAGCCUCCUGGAUGAACUUGGAGAUGACCACGGGAUGCUCUUUGGAGACGGCUGCUGCGCUGCUCAGGAAGCGCUCCAGGUCUCCAUCCGUGUAGGCCACCAACAGAGGAUUGAGCAUCA
B10: chr15:99827826:99827827:+_ENSMUSG00000023025_ENSMUST00000100206|mus_mus|FALSE|FALSE (ssRNA)
RNA: GGGAGUUCUACAGUCCGACGAUCAUUCAUAGCAGCAGCAUUUGUUUUGUAAGAUCCUGGUGAACUAAAGCCAUUCACAAAACUACCAUUGGGAAAGGGAGCCAGUGGUGUUUCAAAGUAAGGUGCAGGACUUGGAGACCAAGACAACAGAGGAUUGAGCAUCA
B11: chr1:187239687:187239688:+_ENSMUSG00000026615_ENSMUST00000046514|mus_mus|motif|central (ssRNA)
RNA: GGGAGUUCUACAGUCCGACGAUCCCAGGAGCACUGGUAUGCAAACUGCUUUUCUCCUGGUGUCUUGGGAUCUUCAAAAACGGUUUCACACAUUUUGGAGAAAUUCUGGCCUAAAUGGUGUGAUGUUGCUCCCUGAAUGGCGCGCAACAGAGGAUUGAGCAUCA
B12: 27957480_27965475_398_CDS_ENSG00000134014_ENST00000521015|human|control|control (ssRNA)
RNA: GGGAGUUCUACAGUCCGACGAUCCUGGGUGGAAUACUCAAAAUCAGAAUCAGGUCCACCAGGGCAGUAUACACAUAUAUUUCCUGUAAAACUGAUGUGUGGACAUCUGUGGGGUUUGCACAUCACAGCCACGACAGCAAUCCCCAACAGAGGAUUGAGCAUCA
B13: chr8:101271117:101271118:-_ENSG00000034677_ENST00000519449|hu_hu|FALSE|FALSE (ssRNA)
RNA: GGGAGUUCUACAGUCCGACGAUCAUAAUCACUGGAACCAUGACUACAAGAAGUUUUCAUGCUUUCUAGGUCAGAACAACUAAAUUCAGAAAAAUGACUAGAGUGAGAAUCUGCUACAGAAGGCAUACUGUCACUGAGGGAUGGCAACAGAGGAUUGAGCAUCA
B14: 43502077_43507884_1890_CDS_ENSMUSG00000038546_ENSMUST00000144326|mouse|control|control (ssRNA)
RNA: GGGAGUUCUACAGUCCGACGAUCUAAGCUGAAUGCGUCCUUCAGCAUUUUCUUAUUUGCUGUGUUCUUGCCACAUUCUCUCCUCAGCUGCUCACUCAUGGCUUGUAGCUCUCGGCCAAAGUGAAUCAUCCUCUCUAUGGCAGCCAACAGAGGAUUGAGCAUCA
B15: chr2:48026839:48026840:+_ENSG00000116062_ENST00000540021|hu_hu|hu_hu_hu_mus_False|28_78 (ssRNA)
RNA: GGGAGUUCUACAGUCCGACGAUCAUAGUGAGCCACUAGCGUCCUAAAUCUGGAACAAUGGCGAUCAUCCGAAAACUGGCCGAUGAAAAACUUGCCCAGUGAAGUGUCAACAAAGCAAACACCAUACACACGAGUGUGACCAGACAACAGAGGAUUGAGCAUCA
B16: 91957201_91972444_1210_CDS_ENSG00000001629_ENST00000265742|human|control|control (ssRNA)
RNA: GGGAGUUCUACAGUCCGACGAUCGGCAUUAUACCCACUUGGUGGUGGAGUUGGCAUUUGAACACCUGAUCGUUGGCAGCAGUUCUCCGGGUUGGACAUCCAAGCUUCAAGUAAUUUCUCCCUGUCCCAGUCAUGAGCUCGAAGCAACAGAGGAUUGAGCAUCA
B17: 45479340_45479460_530_CDS_ENSG00000126088_ENST00000246337|human|control|control (ssRNA)
RNA: GGGAGUUCUACAGUCCGACGAUCGGCACCAGCAAAGCCAAUCAGCGGCACACGUCCAGCCAGUCGUUGUCGGGUAAGGGUGAUGGCUUGGAACACAUAGCCUAGCUCAGAGGCUACCACUUCUGGAUCCCGUAGGCGUUCUAGCAACAGAGGAUUGAGCAUCA
B18: chr16:16330038:16330039:-_ENSMUSG00000022789_ENSMUST00000023477|mus_mus|motif|central (ssRNA)
RNA: GGGAGUUCUACAGUCCGACGAUCACUUUUAUCAUCCACCGGUUCACCAUAGCUAUUUAGAAGAGACUGAUACUGAGCAGCGGAGACAUUUAUUCUUGUUUUCAGCUCUGGUAAACAAUCUCUGAUAUGAUGCAUAAGUAACCUCAACAGAGGAUUGAGCAUCA
B19: 111717365_111717485_9314_ncRNA_ENSMUSG00000033209_ENSMUST00000156290|mouse|control|control (ssRNA)
RNA: GGGAGUUCUACAGUCCGACGAUCCACAUCUGAGACAAAUAGAAAGCAGCCCAGGUACCAAUUUGCUCUUCAGUGUCAGUCAGAGGAAAAACAGCGUACCUAGGCAGCCUGGGAGUCCUCCUCCAUGGCUUGGCAACCACACAUCAACAGAGGAUUGAGCAUCA
B20: chr2:160605324:160605325:+_ENSG00000136536_ENST00000409591|hu_hu|FALSE|FALSE (ssRNA)
RNA: GGGAGUUCUACAGUCCGACGAUCUCUUGAAGGCGCACUUUUAGUUUUAUCACUUUUACCAUCAGCUGAAUUCCAACCUGAAGGAAUAAUAUCUACUGUGAUCAUGACAUUGUCGGUCAAAUUACUCCCAAGUGCUGGAGGGACCAACAGAGGAUUGAGCAUCA
B21: 32339383_32339624_2503_CDS_ENSMUSG00000024002_ENSMUST00000121285|mouse|control|control (ssRNA)
RNA: GGGAGUUCUACAGUCCGACGAUCCUGCUGCUGCGGAGGUGGGGGUGGAGGAGGCUGCUGUGGAGGUGGGGGCGGCUGCUGGGGCACAGGAGCUGGGGCUGGCUGCAUCUGUGGAUGGUGAUGGUGAUGAUGCUUUUUCUGGUCCAACAGAGGAUUGAGCAUCA
B22: 95464784_95464904_1230_3pUTR_ENSMUSG00000038612_ENSMUST00000037947|mouse|control|control (ssRNA)
RNA: GGGAGUUCUACAGUCCGACGAUCAUCCUGUAGCCACUUUCUUUUUGCUAUGUUGCUACAGUAGAACUGGACUGUUAAAAUCCUGGGCAGCUUCAAGUCCACCUUCAUAAAUACACAUGUUUUCACAGAUGCAUGUAGUUUGGUCAACAGAGGAUUGAGCAUCA

Target: T1, UNK ZnF1-3
Assay: nsRBNS (natural sequence RNA bind-n-seq); RBNS binding buffer (assumed for nsRBNS): 25 mM Tris pH 7.5, 150 mM KCl, 3 mM MgCl2, 0.01% Triton X-100, 500 ug/ml BSA, 20 U/ml SUPERase-In, 4 C; UNK is unkempt and MSI1 is Musashi-1; names of the RNAs are library labels; protein concentration not given here; high values mean tight binding

First: B1
Second: B2
The binding signal of the first is lower: 1.86 enrichment R for the first, 2.05 enrichment R for the second.

Compared with B3, B4 is higher in binding signal: 0.418 enrichment R for the first, 0.796 enrichment R for the second.

Going from B5 to B6, the binding signal rises from 0.954 enrichment R to 1.56 enrichment R.

Going from B7 to B8, the binding signal rises from 0.784 enrichment R to 0.87 enrichment R.

Compared with B9, B10 is higher in binding signal: 0.534 enrichment R for the first, 1.6 enrichment R for the second.

Compared with B11, B12 is higher in binding signal: 0.719 enrichment R for the first, 1.03 enrichment R for the second.

Going from B13 to B14, the binding signal falls from 1.2 enrichment R to 0.489 enrichment R.

Compared with B15, B16 is higher in binding signal: 1.35 enrichment R for the first, 2.17 enrichment R for the second.

First: B17
Second: B18
The binding signal of the first is higher: 1.61 enrichment R for the first, 0.972 enrichment R for the second.

Compared with B19, B20 is higher in binding signal: 0.452 enrichment R for the first, 1.01 enrichment R for the second.

First: B21
Second: B22
The binding signal of the first is higher: 1.16 enrichment R for the first, 0.398 enrichment R for the second.
